# In PubChem BioAssay AID1460 (National Center for Advancing Translational Sciences (NCATS), 2008):
# Screen size: about 270,000 compounds; about 5,800 (2.1%) were called active. The inconclusive results got no clear call from the source; some entries with a clear call stand among them for comparison. Calls come from the whole dose curve; as a rule, active = well fitted inhibition curve with a large enough effect; inconclusive = small, poorly fitted or top-dose-only effect; inactive = flat fitted curve, though single readings scatter. A potency beside an inconclusive call is a rough fit, not a confirmed value.
# Biological target: Microtubule-associated protein tau (Homo sapiens) (UniProt P10636)
# Assay: qHTS for Inhibitors of Tau Fibril Formation, Thioflavin T Binding; note: nearly all actives have a fitted effect of over 55% in size
# Settings: recombinant tau K18 P301L (four-repeat tau fragment), heparin-induced fibrillization, ThT fluorescence; series mostly up to 57.4 µM
# Method in brief: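 Heparin-induced (20 uM) aggregation of recombinant human K18 P301L tau, 15 uM unlabeled with 0.24 uM labeled, pH 7 acetate buffer, 6 hr at 37 C with compound. Fibrils quantified by 30 uM ThT fluorescence after 1 hr ambient incubation.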
# Potency is the fitted concentration of half-maximal effect; tags give direction and shape of the fitted curve.
# Chain of UniProt P10636 (P10636 whole entry, looked up): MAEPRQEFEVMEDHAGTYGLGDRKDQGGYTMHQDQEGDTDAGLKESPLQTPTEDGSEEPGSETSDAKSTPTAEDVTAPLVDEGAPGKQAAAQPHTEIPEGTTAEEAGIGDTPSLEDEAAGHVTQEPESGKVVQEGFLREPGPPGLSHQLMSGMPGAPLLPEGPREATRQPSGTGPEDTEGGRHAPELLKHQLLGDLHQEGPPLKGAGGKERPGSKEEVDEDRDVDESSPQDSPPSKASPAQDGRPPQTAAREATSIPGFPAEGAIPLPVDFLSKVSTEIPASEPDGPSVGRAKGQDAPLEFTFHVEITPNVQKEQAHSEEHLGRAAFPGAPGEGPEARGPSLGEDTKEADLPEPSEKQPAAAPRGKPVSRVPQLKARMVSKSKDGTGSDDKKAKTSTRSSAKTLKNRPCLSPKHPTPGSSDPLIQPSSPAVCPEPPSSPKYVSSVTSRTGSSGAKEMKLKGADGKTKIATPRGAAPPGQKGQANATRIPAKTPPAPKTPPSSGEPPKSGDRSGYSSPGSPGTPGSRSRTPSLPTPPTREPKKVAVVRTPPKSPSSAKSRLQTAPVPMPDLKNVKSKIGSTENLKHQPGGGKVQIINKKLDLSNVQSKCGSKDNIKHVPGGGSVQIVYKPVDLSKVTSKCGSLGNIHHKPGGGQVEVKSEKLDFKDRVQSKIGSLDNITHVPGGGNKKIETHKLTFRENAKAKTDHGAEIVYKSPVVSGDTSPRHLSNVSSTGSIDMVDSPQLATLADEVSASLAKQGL
row,Compound,Potency
1,CCOc1cc([N+](=O)[O-])cc(/C=C2/NC(=O)N(Cc3ccccc3F)C2=O)c1O,active: 14.1 µM
2,Cn1c(=O)[nH]c(=O)c2c1nc(N1CCCCCC1)n2CCCSc1nnnn1-c1ccccc1,"inconclusive: 20 µM [inhibitor, single point]"
3,Cc1ccc(C(=O)Nc2cccc3ncccc23)cc1[N+](=O)[O-],"inconclusive: 39.8 µM [inhibitor, single point]"
4,O=C(NCCO)c1cc2ccccc2cc1O,inactive
5,CCCC(=O)Nc1ccc(C=C(C(C)=O)C(C)=O)cc1,"inconclusive: 3.16 µM [inhibitor, partial curve]"
6,CCc1cccc(NC(=O)CCNS(=O)(=O)c2cccc3nonc23)c1,"inconclusive: 0.0251 µM [inhibitor, full curve, poor fit]"
7,Cc1ccc2nc(NC(=O)CSc3nc4c(c(=O)n3C)SC(C)C4)sc2c1 (centres undefined),inactive
8,O=C(CSc1nc2ccc(Cl)cc2[nH]1)c1ccc2c(c1)OCO2,inactive
9,CCN(CCCNC(=O)c1nn(-c2ccc(OC)cc2)c(=O)c2c1c1ccccc1n2C)c1ccccc1,inactive
10,CC(=O)c1c(C)[nH]c(C(=O)Nc2cc(C)cc(C)c2)c1C,"inconclusive: 15.8 µM [inhibitor, partial curve]"
11,CNC(=S)N(CCc1c(C)[nH]c2ccc(OC)cc12)Cc1cc(OC)c(OC)c(OC)c1,"inconclusive: 22.4 µM [inhibitor, partial curve]"
12,CCOc1ccccc1CNCc1cccn1-c1nnc(N2CCN(c3ccccc3)CC2)s1,"inconclusive: 10 µM [inhibitor, partial curve]"
13,Cc1ccsc1/C=C1\SC(N2CCOCC2)=NC1=O,"inconclusive: 31.6 µM [inhibitor, partial curve]"
14,CCCNc1ccc(-c2nc(-c3ccccn3)no2)cc1[N+](=O)[O-],"inconclusive: 2.82 µM [activator, partial curve, poor fit]"
15,CCC1=NN2C(=N)/C(=C\c3cccn3-c3ccc(OC)cc3)C(=O)N=C2S1,"inconclusive: 15.8 µM [inhibitor, partial curve]"
16,O=C(Nc1ccccc1F)c1ccc2c(Cl)c3c(nc2c1)CCC3,inactive
17,Nn1cnnc1N/N=C/c1cc(Br)cc(Br)c1O,active: 14.1 µM
18,O=C(NC(=S)Nc1ccc(N2CCOCC2)cc1)c1cncc(Br)c1,"inconclusive: 12.6 µM [inhibitor, partial curve]"
19,COc1ccc(-c2ccc(C(=O)O)o2)c([N+](=O)[O-])c1,"inconclusive: 39.8 µM [inhibitor, single point]"
20,O=C1CCCC2=C1C(c1ccccc1)C1C(=O)c3ccccc3C1=N2 (centres undefined),inactive
21,CCc1ccc2c(c1)C(=O)C(=O)N2CC(=O)Nc1ccc(NC(=O)c2ccccn2)cc1,active: 14.1 µM
22,CCCOC(=O)c1c(NC(=O)C(C)Sc2nc(-c3ccccc3)cc(C(F)(F)F)n2)sc(C(=O)N(C)C)c1C (centres undefined),"inconclusive: 10 µM [inhibitor, partial curve]"
23,COc1ccc(S(=O)(=O)N2CCC(C(=O)N3CCCCC3)CC2)cc1Cl,inactive

row,Compound,Potency
1,CCC(=O)Nc1ccc(C(=O)CN2CCC(C)CC2)cc1,"inconclusive: 39.8 µM [inhibitor, single point]"
2,CCOC(=O)c1c(N)c2cc([N+](=O)[O-])ccc2n1C,"inconclusive: 0.891 µM [inhibitor, full curve]"
3,Cc1ccccc1-c1ccc(/C=C2/SC(N3CCOCC3)=NC2=O)o1,"inconclusive: 3.98 µM [inhibitor, full curve]"
4,COc1ccccc1C(=O)NCC(c1cccnc1)N1CCc2ccccc2C1 (centres undefined),"inconclusive: 2.24 µM [inhibitor, full curve]"
5,COc1ccc(N2C(=O)CC(Sc3nc4ccccc4s3)C2=O)cc1 (centres undefined),"inconclusive: 17.8 µM [inhibitor, partial curve]"
6,CCOC(=O)c1ccc(NC(=O)CSc2ccc3ccccc3n2)cc1,"inconclusive: 2.82 µM [inhibitor, single point]"
7,C/C(=N/OC(=O)c1ccccc1)c1oc(C)nc1C,"inconclusive: 28.2 µM [inhibitor, partial curve, poor fit]"
8,Cc1cc(=O)oc2cc(OC(C)C(=O)Nc3ccc(N4CCOCC4)cc3)ccc12 (centres undefined),"inconclusive: 14.1 µM [inhibitor, single point]"
9,CCOCCCNS(=O)(=O)c1ccc2c(c1)OCCO2,active: 15.8 µM
10,COc1cc(NC(=O)N2c3ccccc3Sc3ccccc32)cc(OC)c1,inactive
11,CC(=O)c1ccc(NC(=O)c2cc(-c3ccc(C)s3)nc3ccccc23)cc1,inactive
12,CCOC(=O)c1cnc(SCc2ccc(C(C)(C)C)cc2)nc1N,"inconclusive: 15.8 µM [inhibitor, partial curve, poor fit]"
13,Cc1ccc(S(=O)(=O)CNC(=S)c2cccc(Cl)c2)cc1,"inconclusive: 17.8 µM [inhibitor, partial curve]"
14,NC(=O)SCC(=O)Nc1ccccc1C(=O)O,active: 22.4 µM
15,CC1Cc2ccccc2N1C(=O)c1ccc(N2CCCC2)c([N+](=O)[O-])c1 (centres undefined),"inconclusive: 22.4 µM [inhibitor, partial curve]"
16,COC(=O)c1cc(=O)n(-c2ccccc2)c(=Nc2ccccc2)s1,"inconclusive: 35.5 µM [inhibitor, single point]"
17,Cc1sc(NC(=O)CSc2nc(O)cc(=O)[nH]2)nc1-c1ccccc1,"inconclusive: 28.2 µM [inhibitor, partial curve]"
18,CCOC(=O)CC(=O)CSc1nc2c(c(C)c1C#N)CCC2,"inconclusive: 0.562 µM [inhibitor, partial curve, poor fit]"
19,Cc1ccc([N+](=O)[O-])c(OCCN2CCC(Cc3ccccc3)CC2)c1,"inconclusive: 39.8 µM [inhibitor, single point]"
20,C/C(=N\NC(=O)c1cc(-c2cccc([N+](=O)[O-])c2)n[nH]1)c1ccccc1O,active: 2 µM
21,COc1ccc(-c2cc(C(=O)OC(C)C(=O)Nc3c(C)n(C)n(-c4ccccc4)c3=O)c3ccccc3n2)cc1 (centres undefined),inactive
22,CCOC(=O)C1CCN(C(=O)COc2cccc(C)c2)CC1,inactive
23,O=C1c2cccc3cccc(c23)C(=O)N1c1nccs1,inactive

row,Compound,Potency
1,COC(=O)CC1C(C)(C)C(OC(C)=O)C2[C@H](OC(C)=O)[C@]34O[C@]2(O)[C@]1(C)C3CC[C@]1(C)C4=CC(=O)OC1c1ccoc1 (some centres undefined),"inconclusive: 15.8 µM [inhibitor, partial curve]"
2,COc1ccc2oc(-c3ccc(NC(=O)c4ccc(N5CCOCC5)c([N+](=O)[O-])c4)cc3)nc2c1,active: 2.82 µM
3,Cc1ccc2oc(Nc3nc(C)c(C)c(C)n3)nc2c1,"inconclusive: 3.16 µM [inhibitor, full curve]"
4,CCOc1ccc(S(=O)(=O)c2c(C(=O)c3ccc(CC)cc3)cnc3ccc(C)cc23)cc1,"inconclusive: 0.501 µM [inhibitor, full curve, poor fit]"
5,O=C1C=C(NCCN2CCOCC2)C(=O)c2cnccc21,"inconclusive: 28.2 µM [inhibitor, partial curve, poor fit]"
6,Cc1ccc(CNC(=O)c2cc(C)nc3c2c(C)nn3-c2ccc(C)cc2)cc1,inactive
7,COc1ccc(NC(=O)CSc2nc(-c3ccc(F)cc3)[nH]c2-c2ccc(C)cc2)cc1OC,"inconclusive: 3.98 µM [inhibitor, full curve, poor fit]"
8,CCC(=O)c1ccc(N2CCN(C(=O)c3ccccc3Br)CC2)c(F)c1,"inconclusive: 14.1 µM [inhibitor, partial curve]"
9,O=c1cc(-c2ccccc2)oc2c1ccc1ccccc12,"inconclusive: 17.8 µM [inhibitor, partial curve, poor fit]"
10,COc1cc(C2CC(=O)Nc3c2c(C)nn3-c2nncc(-c3ccc(C)cc3)n2)cc(OC)c1OC (centres undefined),inactive
11,CCCCC/C=C\C/C=C\C/C=C\C/C=C\CCCCCC(=O)NCC(=O)O,inactive
12,CNCc1ccccc1Sc1cc(O)ccc1O,active: 17.8 µM
13,CCOc1ccc(NC(=O)c2cnc3ccccn3c2=O)cc1,"inconclusive: 8.91 µM [inhibitor, partial curve]"
14,C=CCNC(=S)NC(=O)c1csc([N+](=O)[O-])c1,"inconclusive: 22.4 µM [inhibitor, partial curve, poor fit]"
15,COc1cc(OC)cc(C(=O)Nc2cc3c(cc2N2CCCC2)n(C)c(=O)c(=O)n3C)c1,"inconclusive: 28.2 µM [inhibitor, partial curve, poor fit]"
16,CC(C)c1ccc(NC(=O)C(=O)C2C(=O)Nc3ccccc32)cc1 (centres undefined),"inconclusive: 10 µM [inhibitor, partial curve]"
17,N#CC1=C2SCN(c3ccccc3)CN2C(=O)CC1c1c(Cl)cccc1Cl (centres undefined),active: 31.6 µM
18,COc1ccc(N2CSC3=C(C#N)C(c4cc(OC)c(OC)cc4OC)CC(=O)N3C2)c(OC)c1 (centres undefined),active: 8.91 µM
19,Cc1ccc(-c2nc(N=Nc3ccc(O)cc3)n[nH]2)cc1,active: 2.51 µM
20,CCCC1=[N+](CC(C)=O)CCn2c(C)ccc21,"inconclusive: 15.8 µM [inhibitor, partial curve]"
21,COc1ccc(CCC(=O)N2CCc3ccccc32)cc1,"inconclusive: 0.501 µM [inhibitor, full curve]"
22,Oc1ccc(-c2csc(NCc3ccco3)n2)cc1,"inconclusive: 15.8 µM [inhibitor, partial curve]"
23,Cc1c(C(=O)Nc2ccc3c(c2)OCO3)sc2ncn(CC(=O)N3CC(C)CC(C)C3)c(=O)c12 (centres undefined),inactive
